According to the supplement of paper PMC10126150:
Values marked as one replicate rest on one cluster of the flow cell; about a third of the high ones do not repeat.

System: ATP
Assay: switch fluorescence ratio, 500 uM ATP over buffer (Cy3 cluster intensity, sum of 5 cycles each) (fold (ratio)); higher = stronger signal-on switching upon ATP binding; sequences stand for … in TCGTCGGCAGCGTCAGATGTGTATAAGAGACAGTTTTTTTTTTTTTTTTTTTTTTTTT…TC
Details: aptamer strand: ATP DNA aptamer (quencher-CACCTGGGGGAGTATTGCGGAGGAAGG + anchor), 100 nM annealed; ATP concentration: 500 uM; one replicate
Summary of the method: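 Imaging in selection buffer was followed by imaging after 15 min with 500 uM ATP at 22 °C, for Cy3-labelled switching-strand clusters annealed to 100 nM quencher-labelled ATP aptamer on a modified Illumina MiSeq flow-cell. Five of these buffer/ATP cycles ran, separated by NaOH stripping and re-annealing. The fluorescence ratio per cluster is summed target-cycle over summed buffer-cycle Cy3 intensity, averaged per switch-domain sequence; clusters outside 100-1000 RFU were removed.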
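Further: ATP exposure 15 min at 22 °C before imaging.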

ACCAACTGAT
switch fluorescence ratio: 1.05

AGCGACGGTA
switch fluorescence ratio: 1.03

GTTGCCTGCG
switch fluorescence ratio: 1.01

AAGGTAATAT
switch fluorescence ratio: 1

TATTAGCATT
switch fluorescence ratio: 1.1

CTTGTATTTG
switch fluorescence ratio: 1.06

CTAGTCCAAC
switch fluorescence ratio: 1.07

TGCGCGTGGC
switch fluorescence ratio: 1.01

CATTCCTGCT
switch fluorescence ratio: 1.04

CGTTTATGCA
switch fluorescence ratio: 1.03

CGGTTAACTT
switch fluorescence ratio: 1.03

GATGACGTTC
switch fluorescence ratio: 0.973

ATTGTATACG
switch fluorescence ratio: 0.996

AAAGAGGTGG
switch fluorescence ratio: 0.981

GTTGGCCAAT
switch fluorescence ratio: 1.02

AAGCTTCTTT
switch fluorescence ratio: 1.08

AACGATTGCC
switch fluorescence ratio: 1.03

CACATAATTA
switch fluorescence ratio: 1.01

TGGGCATTAG
switch fluorescence ratio: 1.05

CCGTACAATG
switch fluorescence ratio: 2.92

CTAATCAGAC
switch fluorescence ratio: 1.03

AGCGTTGGTT
switch fluorescence ratio: 1

TTACTTTGTG
switch fluorescence ratio: 0.992

AGCCATATGC
switch fluorescence ratio: 1.14

ACGCGGGTGA
switch fluorescence ratio: 1.05

AGGCGACC
switch fluorescence ratio: 1.08

ATCCTGAAAT
switch fluorescence ratio: 1.04

CCGAGCTG
switch fluorescence ratio: 2.09

CCATTAATCG
switch fluorescence ratio: 0.993

CCGTCGGTGG
switch fluorescence ratio: 0.985

TATATTTCAA
switch fluorescence ratio: 0.984

AGTCATTGCC
switch fluorescence ratio: 1.04

GGGGTCTGAT
switch fluorescence ratio: 0.978

AGCAAGAAAG
switch fluorescence ratio: 1.01

GGTCCTAACT
switch fluorescence ratio: 1.06

AGTTTTCTGT
switch fluorescence ratio: 0.962

AGTAACCCCA
switch fluorescence ratio: 1.08

CCCGCCTAGT
switch fluorescence ratio: 1.17

CATGATGCT
switch fluorescence ratio: 1.01

ATCTGGAGGG
switch fluorescence ratio: 1.03

TCGGAGGTAG
switch fluorescence ratio: 1.01

CCACTCCCGC
switch fluorescence ratio: 1.42

AGCGTAGTGC
switch fluorescence ratio: 0.982

GGGGGTTATC
switch fluorescence ratio: 1.01

AAAGATTTGG
switch fluorescence ratio: 0.96

GCGCGTGGGG
switch fluorescence ratio: 0.994

CATTTAGCCT
switch fluorescence ratio: 1.08

GTGGCCGACG
switch fluorescence ratio: 1.02

GAAATGTCTA
switch fluorescence ratio: 1.02

GTTAGGATG
switch fluorescence ratio: 0.965

ATGGTTGC
switch fluorescence ratio: 0.966

TATAGGTGTG
switch fluorescence ratio: 0.995

TTTGAGTC
switch fluorescence ratio: 0.974

TGTGCGAGCA
switch fluorescence ratio: 1.02

GTAAGTCACT
switch fluorescence ratio: 1.08

GGTGGTCCGG
switch fluorescence ratio: 1.01

TCACGTTTGG
switch fluorescence ratio: 1.01

CGACGTAAAG
switch fluorescence ratio: 1.12

GGAACGCAGC
switch fluorescence ratio: 1.13

TGTTGAATTG
switch fluorescence ratio: 0.964

AATGTCCTA
switch fluorescence ratio: 0.986

CCAACTACCT
switch fluorescence ratio: 1.28

ACGTATGAGG
switch fluorescence ratio: 1

CGTAGTAGCC
switch fluorescence ratio: 1.03

ACTAATAACG
switch fluorescence ratio: 1.06

TGTCTGACCG
switch fluorescence ratio: 0.953

GGTATATATC
switch fluorescence ratio: 1.04

CACATCGCGG
switch fluorescence ratio: 0.978

GTTAGGTCCT
switch fluorescence ratio: 1.03

TCTCTAATTG
switch fluorescence ratio: 0.974

ATGCTTCTTA
switch fluorescence ratio: 1

AGGGAGCTG
switch fluorescence ratio: 0.983

AGTCGCAGT
switch fluorescence ratio: 1.02

ATAGTGGTTG
switch fluorescence ratio: 1

AAAGCCGCCG
switch fluorescence ratio: 1.06

GAATTATTA
switch fluorescence ratio: 0.99

GACCGAAGTA
switch fluorescence ratio: 1

CCACGAGGGT
switch fluorescence ratio: 1.01

AACCTTAGTT
switch fluorescence ratio: 1.02

ATACATTGGG
switch fluorescence ratio: 1.03

ATTGTGAGAA
switch fluorescence ratio: 0.997

CTAGTACACT
switch fluorescence ratio: 1.07

GATGAACGAG
switch fluorescence ratio: 0.999

TGAAATTGCT
switch fluorescence ratio: 1.02

CATAATACGC
switch fluorescence ratio: 1.08

ATTCACAACT
switch fluorescence ratio: 1.03

AGTGATAGTA
switch fluorescence ratio: 0.976

AAACTTTTGC
switch fluorescence ratio: 1
